In PMC4629154:
Read-outs that look alike come from different tables or passages of the source. No constants are given. Whether binding was seen depends on the method and setting. Binding seen in cells or lysates may run through a third protein. Some results given as binding are weak or reduced against the parent protein; the word gives no strength. For some assays here: Tags and fused reporters may be left off the sequences shown. Blank lines part the entries; values can stand above or below the molecule they belong to.

Chains of the proteins cited; added tags and fusions are not shown.
UniProt Q96EB6: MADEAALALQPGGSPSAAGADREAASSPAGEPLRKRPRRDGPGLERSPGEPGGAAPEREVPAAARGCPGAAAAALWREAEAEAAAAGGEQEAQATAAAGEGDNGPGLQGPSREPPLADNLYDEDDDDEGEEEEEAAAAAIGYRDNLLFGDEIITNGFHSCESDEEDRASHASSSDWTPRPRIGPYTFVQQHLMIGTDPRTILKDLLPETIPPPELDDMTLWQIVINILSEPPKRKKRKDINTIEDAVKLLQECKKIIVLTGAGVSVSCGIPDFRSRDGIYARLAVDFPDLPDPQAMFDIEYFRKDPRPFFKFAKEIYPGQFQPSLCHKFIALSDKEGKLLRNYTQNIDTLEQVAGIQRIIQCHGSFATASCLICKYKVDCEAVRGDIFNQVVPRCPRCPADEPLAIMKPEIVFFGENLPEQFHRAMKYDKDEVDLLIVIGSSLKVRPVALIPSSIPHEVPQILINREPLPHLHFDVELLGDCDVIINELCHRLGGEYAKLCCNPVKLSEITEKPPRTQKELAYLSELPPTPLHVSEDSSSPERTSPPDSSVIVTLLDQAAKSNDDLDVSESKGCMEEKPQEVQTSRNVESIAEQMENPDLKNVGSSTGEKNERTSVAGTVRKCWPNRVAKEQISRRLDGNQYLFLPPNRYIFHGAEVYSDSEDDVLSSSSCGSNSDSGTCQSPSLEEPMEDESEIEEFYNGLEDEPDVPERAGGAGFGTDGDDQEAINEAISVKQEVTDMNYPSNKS
UniProt O14980: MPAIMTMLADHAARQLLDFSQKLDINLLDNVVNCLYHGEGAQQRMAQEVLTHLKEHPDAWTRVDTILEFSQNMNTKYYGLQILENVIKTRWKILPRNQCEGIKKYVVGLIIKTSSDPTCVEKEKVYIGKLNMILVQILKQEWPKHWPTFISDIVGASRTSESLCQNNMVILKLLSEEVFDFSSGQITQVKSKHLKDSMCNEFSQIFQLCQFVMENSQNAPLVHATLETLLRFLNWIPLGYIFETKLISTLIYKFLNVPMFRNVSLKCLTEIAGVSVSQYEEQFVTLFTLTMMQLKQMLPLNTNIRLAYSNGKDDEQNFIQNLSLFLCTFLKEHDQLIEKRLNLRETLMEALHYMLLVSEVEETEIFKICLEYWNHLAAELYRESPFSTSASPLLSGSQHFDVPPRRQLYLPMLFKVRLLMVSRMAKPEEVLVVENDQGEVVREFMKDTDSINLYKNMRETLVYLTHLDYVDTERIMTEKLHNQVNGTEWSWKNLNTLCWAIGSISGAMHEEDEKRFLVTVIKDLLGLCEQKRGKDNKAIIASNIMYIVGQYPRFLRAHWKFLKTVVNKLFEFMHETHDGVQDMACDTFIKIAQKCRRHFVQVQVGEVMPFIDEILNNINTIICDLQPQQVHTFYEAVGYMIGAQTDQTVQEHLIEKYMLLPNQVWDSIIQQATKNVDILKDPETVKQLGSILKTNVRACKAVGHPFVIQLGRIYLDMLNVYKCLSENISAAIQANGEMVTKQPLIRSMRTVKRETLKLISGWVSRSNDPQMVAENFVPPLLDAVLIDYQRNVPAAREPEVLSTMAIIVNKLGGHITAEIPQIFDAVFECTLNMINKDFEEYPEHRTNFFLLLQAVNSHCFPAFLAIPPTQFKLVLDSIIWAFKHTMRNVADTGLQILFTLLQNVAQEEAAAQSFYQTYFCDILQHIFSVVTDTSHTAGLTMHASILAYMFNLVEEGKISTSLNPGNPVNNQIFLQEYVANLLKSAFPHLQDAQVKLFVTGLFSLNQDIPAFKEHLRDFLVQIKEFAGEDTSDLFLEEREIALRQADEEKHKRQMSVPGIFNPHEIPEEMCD

Assays:
[1] = target: Flag-HMGB1 K282930R (hypo-acetylation mutant) (mouse) (UniProt P63158); test: co-IP; HEK293T cells co-transfected for 48 h; whole-cell lysates (PRO-PREP), pre-cleared; anti-Flag antibody (1 ug) overnight at 4 °C, protein G Sepharose 4 h; immunoblot; in some panels cells treated with LPS, TNF-α, Poly (I:C), IFN-γ, resveratrol or sirtinol, or co-transfected with HA-PCAF
[2] = target: Flag-tagged HMGB1 (high-mobility group box 1), full length (mouse) (UniProt P63158); test: as above
[3] = target: GST-fused SIRT1 protein (human) (UniProt Q96EB6); test: pull-down; GST-SIRT1 from E. coli immobilised on glutathione-Sepharose 4B beads, incubated with lysates of transfected HEK293T cells overnight (20 h) at 4 °C, washed thrice with PBS; immunoblot; in some panels cells treated with stimuli for 3 h; only the target purified
Myc-tagged SIRT1 (human) = Myc-tagged SIRT1 (human) (UniProt Q96EB6); test: co-IP; HEK293T cells co-transfected for 48 h; whole-cell lysates; anti-Myc antibody for immunoprecipitation, anti-Flag antibody for immunoblot; in one panel cells treated with LPS
[4] = target: GST-fused SIRT1 protein (human) (UniProt Q96EB6); test: pull-down; GST-SIRT1 from E. coli immobilised on glutathione-Sepharose 4B beads, incubated with lysates of transfected HEK293T cells overnight (20 h) at 4 °C, washed thrice with PBS; immunoblot; in some panels cells treated with stimuli for 3 h; only the target purified; remark: listed apart in the source

Molecule: HA-tagged chromosome region maintenance 1 (CRM1) (from UniProt O14980 1-1071)
binding [1]: binds
binding [2]: binds

Molecule: Flag-HMGB1-B&C (aa 89-215) (from UniProt P63158 89-215) (domain or fragment)
binding [3]: no binding

Molecule: Flag-HMGB1-B (aa 89-185) (from UniProt P63158 89-185) (domain or fragment)
binding [3]: no binding

Molecule: Flag-HMGB1-A&B (aa 1-185) (from UniProt P63158 1-185) (domain or fragment)
binding [3]: binds

Results, then the molecule that gave them:

binding (Myc-tagged SIRT1 (human)): binds
binding [3]: binds
Molecule: Flag-tagged HMGB1 (high-mobility group box 1), full length (from UniProt P63158 1-215)

binding [4]: binds
B1: Flag-HMGB1-A (aa 1-88) (domain or fragment, UniProt P63158 1-88)
chain: MGKGDPKKPRGKMSSYAFFVQTCREEHKKKHPDASVNFSEFSKKCSERWKTMSAKEKGKFEDMAKADKARYEREMKTYIPPKGETKKK
